# Measured values taken from PubChem BioAssay AID1645882 (National Center for Advancing Translational Sciences (NCATS), 2021).
# In all, about 16,000 compounds went through this assay and about 120 (0.75%) were called active. Not shown: some 4% with an inconclusive outcome. The call rests on the fitted dose curve; in most records, active means well fitted inhibition curve with a large enough effect; inconclusive means small, poorly fitted or top-dose-only effect; inactive means no such curve, though single readings can be large or run the other way. This is one part of the list.
# Biological target: Rap guanine nucleotide exchange factor 3 (Homo sapiens) (UniProt O95398)
# Sequence of UniProt O95398 (O95398 whole entry, looked up): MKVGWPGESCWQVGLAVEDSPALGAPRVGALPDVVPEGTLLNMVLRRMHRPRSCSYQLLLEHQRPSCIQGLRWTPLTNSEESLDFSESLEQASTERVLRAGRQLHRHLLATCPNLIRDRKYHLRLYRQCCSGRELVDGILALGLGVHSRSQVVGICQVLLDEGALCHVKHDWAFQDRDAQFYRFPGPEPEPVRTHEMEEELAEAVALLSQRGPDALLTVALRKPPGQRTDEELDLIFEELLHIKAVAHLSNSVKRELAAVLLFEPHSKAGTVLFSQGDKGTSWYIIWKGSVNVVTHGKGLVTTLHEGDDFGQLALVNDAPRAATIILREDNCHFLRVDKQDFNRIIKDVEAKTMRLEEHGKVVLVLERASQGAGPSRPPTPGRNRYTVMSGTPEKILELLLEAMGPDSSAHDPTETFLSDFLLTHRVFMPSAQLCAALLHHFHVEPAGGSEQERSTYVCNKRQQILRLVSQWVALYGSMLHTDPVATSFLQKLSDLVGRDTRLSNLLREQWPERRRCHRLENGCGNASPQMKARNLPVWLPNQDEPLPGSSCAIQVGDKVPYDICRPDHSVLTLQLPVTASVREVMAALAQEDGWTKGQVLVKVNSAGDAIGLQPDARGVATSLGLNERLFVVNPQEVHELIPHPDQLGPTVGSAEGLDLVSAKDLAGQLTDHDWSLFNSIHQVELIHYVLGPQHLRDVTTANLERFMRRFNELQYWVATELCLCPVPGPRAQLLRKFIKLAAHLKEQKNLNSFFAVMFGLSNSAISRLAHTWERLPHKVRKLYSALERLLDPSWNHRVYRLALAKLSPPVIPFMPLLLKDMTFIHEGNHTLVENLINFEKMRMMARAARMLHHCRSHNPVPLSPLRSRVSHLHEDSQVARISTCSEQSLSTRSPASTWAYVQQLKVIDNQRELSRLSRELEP
# Test: Validation qHTS for antagonist of cAMP-regulated guanine nucleotide exchange factor 3 (EPAC1); further: nearly all actives have a fitted effect of over 75% in size;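 on activity change, negative = inhibition: plate controls were DMSO for no effect and ATA control for full effect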
# Details: EPAC1 Rap1B-BODIPY-GDP exchange, fluorescence; series mostly up to 150 µM; activity change, negative = inhibition: at the top concentration
# In short: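 EPAC1 (100 nM) mixed with 250 nM RAP1B-BODIPY-GDP and 50 uM GDP; compounds in concentration series, 5 min at room temperature. Fluorescence (ex 480/em 540 nm) read every 5 min for 30 min; normalized to ATA control and DMSO.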
# Potency means the concentration at half of the fitted maximal effect.
SMILES,"activity change, negative = inhibition",Potency
FC(F)(F)c1ccccc1-c1cncnc1-n1ccnc1,inactive: 7.03%,–
CS(=O)(=O)Nc1cccc(-c2cncnc2Nc2ccc(F)cc2)c1,inactive: 2.68%,–
C=C1CC[C@@H]2[C@](C)(CO)[C@H](O)CC[C@@]2(C)[C@@H]1C/C=C1/C(=O)OC[C@H]1O,inactive: 18.7%,–
Cc1c(C(=O)N(CCO)C(C)C)cnn1-c1ncc2c(n1)-c1ccccc1CCC2,inactive: 5.34%,–
COc1ccc(-c2nc3cnc(N(C)C)nc3n(-c3ccccc3)c2=O)cc1,inactive: 64.3%,–
CCN(CC)CCN(C)c1ccc(/C=C/c2ccnc3ccccc23)cc1,inactive: 17%,–
Brc1ccc2c(ccc[n+]2CCc2ccccc2)c1,inactive: 25.3%,–
Ic1ccc(N2CCN(Cc3c[nH]c4ncccc34)CC2)cc1,inactive,–
CCCN(CC)C(CC)C(=O)Nc1c(C)cccc1C (stereo not drawn),inactive: -0.504%,–
COc1cc(=O)n2c(c1C(=O)NCc1ccco1)CCN(Cc1cc3ccccc3[nH]1)CC2,inactive: 10.5%,–
Nc1ncnc2c1nc(Br)n2C1OC2COP(=O)(O)O[C@@H]2C1O (stereo partly drawn),–,active: 708 nM
OCc1ccccc1O[C@@H]1O[C@H](CO)[C@@H](O)[C@H](O)[C@H]1O,inactive: 14.4%,–
CNc1nc(-c2ccccc2C(F)(F)F)nc2ccccc12,inactive: 2.64%,–
O=C(O)[C@H]1CN(C/C=C/P(=O)(O)O)CCN1,inactive: 15.5%,–
N#Cc1cccc(-c2cncnc2NCc2cccnc2)c1,inactive: 2.16%,–
CNc1nc(-c2cccc(NS(C)(=O)=O)c2)nc2ccccc12,inactive: 9.01%,–
CC1(C)N=C(N)N=C(N)N1c1ccc(Cl)cc1,inactive: 23.9%,–
C[C@@H](NCCc1ccc(O)cc1)[C@@H](O)c1ccc(O)cc1,inactive: -5.43% [at 75.8 µM],–
COc1ccc(NS(=O)(=O)c2ccc(I)cc2)cc1N1CCN(C)CC1,inactive: 8.02%,–
COCC1CCCN(Cc2ccc3c(c2)CN(C(=O)c2ccnn2C)CCO3)C1 (stereo not drawn),inactive: 22.3%,–
COc1ccc(-n2c(=O)c(-c3cccs3)nc3cnc(Nc4ccccc4)nc32)cc1,inactive: 46.1%,–
COc1ccc(C(=O)N2CCC3(CC2)CCN(c2ncccn2)CC3)cc1,inactive: 18.4%,–
CN1C(CCl)Nc2cc(Cl)c(S(N)(=O)=O)cc2S1(=O)=O (stereo not drawn),inactive: 12.1%,–
c1ccc2c(CC3=NCCN3)cccc2c1,inactive,–

SMILES,"activity change, negative = inhibition",Potency
CC(=O)OCC(=O)[C@@]12OC(C)(C)O[C@@H]1C[C@H]1[C@@H]3C[C@H](F)C4=CC(=O)C=C[C@]4(C)[C@@]3(F)[C@@H](O)C[C@@]12C,inactive: 5.07% [at 75.8 µM],–
Cc1cc(C)c(CN2CCC3(CCC(CNC(=O)c4ccn(C)n4)O3)CC2)cc1C (stereo not drawn),inactive: -3.23%,–
O=C(c1ccc(C(F)(F)F)cc1)N(Cc1cc2ccc(F)cc2nc1N1CCOCC1)C1CC1,inactive: 2.46%,–
C[C@]12CCC3c4ccc(O)cc4CCC3C1CC(O)C2O (stereo partly drawn),inactive: 18.2%,–
O=S(=O)(c1ccccc1)N1CCC2(CCN(C(c3ccccc3)c3ccccc3)CC2)CC1,inactive: 10.7%,–
O=C(O)[C@@H]1C[C@H](C(=O)O)N1,inactive: 3.86% [at 75.8 µM],–
N#Cc1ccccc1-c1cncnc1NCc1cccnc1,inactive: -16.1%,–
CCC(=O)O[C@@H]1CC(=O)O[C@H](C)C/C=C/C=C/[C@H](O)[C@H](C)C[C@H](CC=O)[C@H](O[C@@H]2O[C@H](C)[C@@H](O[C@H]3C[C@@](C)(O)[C@@H](OC(=O)CC)[C@H](C)O3)[C@H](N(C)C)[C@H]2O)[C@H]1OC,inactive: 13.4% [at 75.8 µM],–
COC(=O)c1cn([C@H]2C[C@@H](C(=O)N3CCCCCC3)N(Cc3ccsc3)C2)nn1,inactive: 1.09%,–
COc1c(C)c2c(c(O)c1CC=C(C)CCC(=O)OCCN1CCOCC1)C(=O)OC2,inactive: 6.34%,–
COc1ccc(S(=O)(=O)N2c3ccc(Cl)cc3[C@@](O)(c3ccccc3Cl)[C@H]2C(=O)N2CCC[C@@H]2C(N)=O)cc1OC,inactive: 12.8%,–
CCc1noc(C)c1C(=O)NCCN1Cc2cc(OC)ccc2OC(CC)C1 (stereo not drawn),inactive: 19.3%,–
CCN(CC)CC(=O)Nc1c(C)cccc1C,inactive,–
COC(=O)CC1C(C)(C)C(=O)C2CC3=C(CC[C@]4(C)C3=CC(=O)OC4c3ccoc3)[C@@]1(C)C2=O (stereo partly drawn),inactive: 13.7%,–
Cc1ccc2ncc(C)c(/C=C/c3ccc(N(C)C)cc3)c2c1,inactive: -1.87%,–
CC(=O)Nc1ccc(SC[C@H](C)CN2CC[C@H](O)CCC2=O)cc1,inactive: 1.01%,–
O=C(c1cccc(F)c1)N1CCC2(CCCN(c3ccccn3)C2)CC1,inactive: 5.53%,–
O=C1NS(=O)(=O)c2ccccc21,inactive,–
NS(=O)(=O)c1cc2c(cc1Cl)NC(C1CC3C=CC1C3)NS2(=O)=O (stereo not drawn),inactive,–
c1ccc2c(N3CCNCC3)nc(-c3ccc4c(c3)OCO4)nc2c1,inactive: -2.72%,–
C(=C\c1ccc2ccccc2n1)/c1ccc2ccccc2n1,inactive: 19.1%,–
c1coc(CNc2ncnc3nc[nH]c23)c1,inactive: 13.6%,–
COc1ccc2[nH]cc(CCNc3ncncc3-c3cccc(C#N)c3)c2c1,inactive: -0.921%,–
S=C(S)N1CCCC1,inactive,–
